Drawing on PubChem BioAssay AID1645887 (National Center for Advancing Translational Sciences (NCATS), 2021), this text covers activation for 84 molecules.

“And” between values parts separate entries of the source, which are not always exact repeats. Equal values may be shown once. About 40 (0.2%) of roughly 16,000 compounds were called active. About 1% were inconclusive and are not listed. The call rests on the fitted dose curve; in most records, active means well fitted activation curve with a large enough effect; inconclusive means small, poorly fitted or top-dose-only effect, or another doubt; inactive means no such curve, though single readings can be large or run the other way. The list shows a part of the results.
On the % scale 0 is the no-effect control and ±100 the full control effect.

Sequence of UniProt Q8WZA2 (Q8WZA2 whole entry, looked up): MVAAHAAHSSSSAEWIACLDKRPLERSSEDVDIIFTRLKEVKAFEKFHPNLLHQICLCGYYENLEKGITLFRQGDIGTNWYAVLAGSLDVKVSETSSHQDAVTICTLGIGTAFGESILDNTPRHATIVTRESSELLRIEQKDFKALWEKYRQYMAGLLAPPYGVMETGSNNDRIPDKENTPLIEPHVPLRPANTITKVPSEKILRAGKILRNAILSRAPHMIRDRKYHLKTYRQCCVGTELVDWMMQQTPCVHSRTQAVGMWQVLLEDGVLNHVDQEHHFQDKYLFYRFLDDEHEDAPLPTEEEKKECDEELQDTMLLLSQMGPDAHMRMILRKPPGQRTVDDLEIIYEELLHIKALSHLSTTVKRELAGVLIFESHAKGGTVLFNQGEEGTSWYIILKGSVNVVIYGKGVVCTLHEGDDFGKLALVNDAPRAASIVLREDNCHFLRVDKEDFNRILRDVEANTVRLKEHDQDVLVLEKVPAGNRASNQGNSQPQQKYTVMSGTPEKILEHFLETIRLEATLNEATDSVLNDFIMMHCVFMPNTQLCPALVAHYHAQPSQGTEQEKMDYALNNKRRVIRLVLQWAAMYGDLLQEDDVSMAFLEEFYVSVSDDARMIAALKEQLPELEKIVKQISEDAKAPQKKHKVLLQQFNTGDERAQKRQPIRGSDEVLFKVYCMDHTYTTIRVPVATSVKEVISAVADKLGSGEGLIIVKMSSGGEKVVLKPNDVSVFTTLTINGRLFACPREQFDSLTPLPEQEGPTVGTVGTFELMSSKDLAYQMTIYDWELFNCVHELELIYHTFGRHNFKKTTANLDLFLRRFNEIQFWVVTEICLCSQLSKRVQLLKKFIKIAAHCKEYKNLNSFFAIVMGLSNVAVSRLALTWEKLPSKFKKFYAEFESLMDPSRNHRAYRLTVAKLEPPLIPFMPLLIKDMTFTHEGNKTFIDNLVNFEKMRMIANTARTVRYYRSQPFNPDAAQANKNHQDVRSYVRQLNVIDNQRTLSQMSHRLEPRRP

For the experiment, the target named is Rap guanine nucleotide exchange factor 4 (Homo sapiens) (UniProt Q8WZA2). Put plainly: Validation qHTS for agonist of cAMP-regulated guanine nucleotide exchange factor 4 (EPAC2).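 Further: exchange makes BODIPY-GDP fluorescence drop when released from Rap1B; series mostly up to about 150 µM.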 The following applies: EPAC2 Rap1B BODIPY-GDP exchange, fluorescence; activation: hits give high values. The gist of the method:
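Fluorescent exchange assay: 100 nM EPAC2 with 250 nM RAP1B-BODIPY-GDP and 50 uM GDP; compound added, 5 min at room temperature, then read (ex 480/em 540 nm) every 5 min for 30 min. Normalized to 6.5 mM cAMP agonist control.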
A general note: In qHTS, concentration-response curves come from the screen itself.
For `CCCc1c2oc(C(=O)O)cc(=O)c2cc2c(=O)cc(C(=O)O)n(CC)c12`, the activation was inactive: -8.09%.

For the molecule `Oc1cc(O)c2c(c1)OC(c1cc(O)c(O)c(O)c1)C(O)C2` (centres undefined), the activation was inactive: -21.4%.

On to `COc1cc2c(cc1OC)[C@@H](Cc1cc(OC)c(OC)c(OC)c1)[N+](C)(CCCOC(=O)CC/C=C/CCC(=O)OCCC[N+]1(C)CCc3cc(OC)c(OC)cc3[C@H]1Cc1cc(OC)c(OC)c(OC)c1)CC2` (some centres undefined), for which the activation was inactive: -0.0601% and inactive: -0.0119%.

Regarding `CC(=O)OCC(=O)[C@@]12OC(C)(C)OC1CC1C3CC(F)C4=CC(=O)C=C[C@@]4(C)[C@@]3(F)C(O)C[C@]12C` (some centres undefined), the activation is inactive: 0.406%.

As to `COC(=O)/C=C/c1cc(F)ccc1S(=O)(=O)NC(C)(C)C`, the activation was inactive: -14.1%.

In the case of `Cc1cc(C)nc(-c2cccc3c2OC(CNC(=O)c2ccc(Cn4nc(C)cc4C)cc2)C3)n1` (centres undefined), the activation is inactive: -5.48%.

In the case of `O=S1(=O)CCOCCCN1Cc1cccc(F)c1`, the activation was inactive: -1.25%.

Consider `C[C@H]1CN(C2CCCCC2)C(=O)[C@@H]1CC(=O)NCc1ccccc1`, for which the activation is inactive: -33%.

With `C[C@@H]1C(=O)CC2C(C)(C)CCC[C@]2(C)[C@@]1(O)CCc1ccoc1` (some centres undefined), the activation was inactive: -17.1%.

Take `CC(C)N1CCN(C(=O)c2cnn(-c3nccc(-c4ccc5c(c4)OCO5)n3)c2-c2ccco2)CC1`: the activation was inactive: 5.25%.

Take `CSc1ccccc1C(=O)NCC1Cc2cccc(-c3ncccc3C)c2O1` (centres undefined): the activation is inactive: -1.01%.

Consider `Cc1cc(-n2c(=O)[nH]c(=O)n(C)c2=O)ccc1Oc1ccc(S(=O)(=O)C(F)(F)F)cc1`, for which the activation was inactive: -11.8%.

Regarding `CC(=O)O[C@]1(C(C)=O)CC[C@H]2[C@@H]3C=C(Cl)C4=CC(=O)[C@@H]5C[C@@H]5[C@]4(C)[C@H]3CC[C@@]21C`, the activation was inactive: -23.7% and inactive: -32.8%.

For the molecule `COc1ccc(C(=O)NCc2nc(-c3ccccc3NC(=O)c3cc(C)oc3C)oc2C)cc1F`, the activation was inactive: -11.9%.

`CCCCCCCCCCCCCCCC[n+]1ccc(/C=C/c2c[nH]c3ccccc23)cc1`: the activation is inactive: -43.9%.

Take `O=C(O)C1CCCN(CCC=C(c2ccccc2)c2ccccc2)C1` (centres undefined): the activation was inactive: -14.9% and inactive: 11.6% and inactive: -19%.

Consider `CC1(C)OC2CC3C4CC(F)C5=CC(=O)C=CC5(C)C4C(O)CC3(C)[C@]2(C(=O)CO)O1` (some centres undefined), for which the activation was inactive: -1.9%.

Regarding `COc1cc(CN2CCC3(CC2)c2ccccc2[C@@H](NC(=O)c2ccccc2OC)[C@@H]3O)ccc1F`, the activation is inactive: -11.5%.

As to `COc1ccccc1-c1cncnc1NCCc1cnc[nH]1`, the activation is inactive: 6.47%.

Regarding `O=C(O)/C=C/c1ccc(O)c(O)c1`, the activation was inactive: -3.84% [middle of 4 runs].

In the case of `COc1cc2nc(N(C)CCCNC(=O)C3CCCO3)nc(N)c2cc1OC` (centres undefined), the activation was inactive: -20.5% and inactive: -20.4% and inactive: -22.4%.

Take `c1ccc(Nc2nc(-c3ccoc3)nc3ccccc23)cc1`: the activation is inactive: -7.24%.

As for `CCN(CC)c1ccc(C(=C2C=CC(=[N+](CC)CC)C=C2)c2ccccc2)cc1`, the activation was inactive: -7.28%.

Turning to `Cc1cc[n+](C2CCCCC2)c2ccccc12`, the activation was inactive: -5.26%.

Turning to `Oc1ccc2ccccc2c1SSc1c(O)ccc2ccccc12`, the activation is inactive: -44.4%.

For `Clc1ccc(Cn2c(CN3CCCC3)nc3ccccc32)cc1`, the activation is inactive: -33% and inactive: -11%.

For `CCOC(=O)N1CCN(Cc2ccc3c(c2)CN(C(=O)c2ccc4ncccc4c2)CCO3)CC1`, the activation was inactive: -8.18%.

On to `[O-][N+]12CCCc3cccc(c31)CCC2`, for which the activation was inactive: -20.7%.

As for `C[C@@](N)(C(=O)O)c1ccc(C(=O)O)cc1`, the activation was inactive: -7.88% and inactive: -19% and inactive: 6.48%.

As to `COc1ccccc1Oc1coc2cc(O)ccc2c1=O`, the activation was inactive: -11.8%.

Turning to `O=C(O)/C(=C/c1c(C(=O)O)[nH]c2cc(Cl)cc(Cl)c12)c1ccccc1`, the activation is inactive: -13.7%.

`CN(C)c1ccc(CN2CCOc3ccc(CN4CCC(O)(c5cccnc5)CC4)cc3C2)cc1`: the activation was inactive: -5.16%.

Consider `CCn1nc(C)cc1C(=O)NCC1Cc2cccc(-c3cccnc3)c2O1` (centres undefined), for which the activation was inactive: -3.64%.

With `CCC1(C2CCN(Cc3cccnc3)CC2)NC(=O)N(CC2COc3ccccc3O2)C1=O` (centres undefined), the activation was inactive: -7.03%.

As for `C[N+](C)(C)CCCCCCCCCC[N+](C)(C)C`, the activation was inactive: -17.2% and inactive: -5.26%.

For `CC(=O)c1ccc(C(=O)NCC2Cc3cccc(-c4ncccn4)c3O2)cc1` (centres undefined), the activation is inactive: -6.58%.

`Cn1cccc1C(=O)N1CCC2(CCCN(Cc3ccncc3)C2)CC1`: the activation was inactive: -18.9%.

Consider `COCCNc1nc(-c2ccoc2)nc2ccccc12`, for which the activation is inactive: -12.8%.

`COc1ccc(NC(=O)N2CC3(CCN(C(=O)c4cnccn4)CC3)C2)cc1`: the activation is inactive: -5.66%.

For the molecule `OCc1ccc(Cl)cc1Cl`, the activation is inactive: -24.7%.

In the case of `CN(C)c1ncc2nc(-c3ccccc3)c(=O)n(CCc3ccccc3)c2n1`, the activation is inactive: -8%.

Take `CCOc1ccc2nc(N3CCCN(CCCn4cccn4)CC3)nc(C)c2c1`: the activation was inactive: -12.1%.

As to `O=C(Cc1ccc(Cl)cc1)c1c(O)cc(O)cc1O`, the activation is inactive: 6.33%.

On to `CN1C[C@@H]2C[C@H]1CN2c1cc2c(cc1F)c(=O)c(C(=O)O)cn2C1CC1`, for which the activation was inactive: -0.428%.

In the case of `CCCCCCCCCCCCCC[n+]1ccc(C)cc1`, the activation is inactive: -4.19%.

For the molecule `N[C@@H](Cc1c[nH]c2ccc(O)cc12)C(=O)O`, the activation was inactive: 0.53% and inactive: -32.9%.

Consider `CN(C)c1ncc2ncc(=O)n(C)c2n1`, for which the activation is inactive: -9.39%.

As for `O=C(O)Cc1nn(Cc2ccc(Br)cc2F)c(=O)c2ccccc12`, the activation was inactive: -24.9%.

Regarding `CCc1cccc2c(C(O)c3c[nH]c4ccccc34)c[nH]c12` (centres undefined), the activation is inactive: -5.45%.

Consider `N#CCCn1c(=O)c(-c2cccc(C#N)c2)nc2cnc(Oc3cccc(Cl)c3)nc21`, for which the activation was inactive: 4.2%.

Consider `OC1(c2cccnc2)CCN(Cc2ccc3c(c2)CN(Cc2ccsc2)CCO3)CC1`, for which the activation is inactive: -3.86%.

`N[C@@H](C(=O)O)c1cc(O)ccc1Cl`: the activation was inactive: -21.6%.

As for `Cc1cc2c(c(-c3cnccn3)c1)OC(CNC(=O)c1ccccc1C(F)(F)F)C2` (centres undefined), the activation is inactive: -8.97%.

As for `Cc1cc(C)c2c(C)ccnc2c1`, the activation is inactive: -20.4%.

On to `COC(=O)C1N[C@@H]([C@@H](NC(=O)COc2ccccc2)C(=O)NCc2ccc(OC)cc2)SC1(C)C` (some centres undefined), for which the activation is inactive: -23.7%.

With `NC(N)=Nc1ccc(Cl)cc1`, the activation was inactive: -18.4%.

For `Cc1cc(CNC(=O)c2cnn(-c3nccc(-c4ccc5c(c4)OCO5)n3)c2C2CC2)on1`, the activation is inactive: -10.2%.

Regarding `CC1c2ccccc2CN1NC(=O)c1ccc(Cl)c(S(N)(=O)=O)c1` (centres undefined), the activation is inactive: 3.5%.

On to `O=C(c1ccncc1)N1CCC2(CCCN(Cc3ccncc3)C2)CC1`, for which the activation is inactive: -13.6%.

Turning to `[N-]=[N+]=NCC1OC(n2cnc3c(=O)[nH]c(N)nc32)C(O)C1O` (centres undefined), the activation is inactive: 1.52%.

As for `COCCNc1ncnc2ccc(-c3ccccc3CN(C)C)cc12`, the activation was inactive: -5.32%.

Turning to `CCCCCCCCCCCCCCCC(=O)OC[C@@H](NC(=O)C(Cl)Cl)[C@H](O)c1ccc([N+](=O)[O-])cc1`, the activation is inactive: 4.84%.

Consider `CN(CCO)C(=O)c1cn(C2CCN(Cc3ccc(C(F)(F)F)cc3)CC2)nn1`, for which the activation was inactive: 7.53%.

For `COc1cc(OC)cc(OC)c1`, the activation is inactive: -16%.

For the molecule `O=C(O)Cc1ccccc1Oc1ccc(Cl)cc1Cl`, the activation is inactive: -4.33%.

With `CNC1C(O)C(O)C(CO)O[C@H]1OC1C(O[C@@H]2C(O)C(O)[C@@H](N=C(N)N)C(O)C2N=C(N)N)OC(C)[C@]1(O)C=O` (some centres undefined), the activation is inactive: 2.43%.

As to `COc1cc(O)c(C(=O)c2ccccc2)cc1S(=O)(=O)O`, the activation was inactive: -1.07%.

Take `CCCCC(CC)COC(=O)c1ccc(N(C)C)cc1` (centres undefined): the activation was inactive: -8.25%.

For the molecule `COC(=O)C1CCN(Cc2ccc3c(c2)CN(C(=O)C(C)N2CCOCC2)CCO3)CC1` (centres undefined), the activation is inactive: -19.8%.

`C/C=C1\C2C=C(C)CC1(N)c1ccc(=O)[nH]c1C2` (centres undefined): the activation was inactive: -0.903%.

Regarding `Cc1ccnc2ccc(Br)cc12`, the activation was inactive: -17.7%.

In the case of `Cc1o[nH]c(=O)c1CC[C@H](N)C(=O)O`, the activation was inactive: -22.7%.

With `COc1cccc2c(=O)c3ccccc3oc12`, the activation was inactive: -1.88%.

In the case of `COc1cc(OC)c2c(=O)c(O)c(-c3ccc(OC)c(OC)c3)oc2c1`, the activation is inactive: -19.5%.

As for `CNCc1ccccc1`, the activation is inactive: -4.4%.

In the case of `Nc1nc(NC2CC2)c2ncn([C@@H]3C=C[C@@H](CO)C3)c2n1`, the activation was inactive: -13.6%.

`COc1ccc(NC(=O)N2CCC3(CC2)CCN(C(=O)c2cccc(F)c2)CC3)cc1`: the activation is inactive: -5.8%.

As to `C=C1C[C@@]23CC[C@H]4[C@@](C)(CCC[C@@]4(C)C(=O)O)[C@@H]2CC[C@]1(O)C3`, the activation was inactive: -18.8%.

Take `O=C(NNCNNC(=O)c1ccncc1)c1ccncc1`: the activation was inactive: -9.69%.

`O=C(O)CC(O)(CC(=O)O)C(=O)O`: the activation is inactive: -6.86% and inactive: 0.407%.

Consider `CO[C@H]1C=CO[C@@]2(C)Oc3c(C)c(O)c4c(O)c(c(/C=N/N5CCN(C6CCCC6)CC5)c(O)c4c3C2=O)NC(=O)/C(C)=C\C=C[C@H](C)[C@H](O)[C@@H](C)[C@@H](O)[C@@H](C)[C@H](OC(C)=O)[C@@H]1C`, for which the activation is inactive: -35.8%.

With `COc1ccc(/C=C/C(=O)NCC2Cc3cc(Cl)cc(-c4ncccn4)c3O2)cc1` (centres undefined), the activation was inactive: 11.2%.

As for `COc1ccccc1CN1CCCC2(CCN(C(=O)c3ccncc3)CC2)C1`, the activation was inactive: -15.3%.

With `O=C(Cc1nc2ccccc2[nH]1)N1CCC(n2c(C3CCC3)nc3cccnc32)CC1`, the activation is inactive: -6.4%.
